Results published in PubChem BioAssay (NCI).
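All cell lines were grown in 96-well plates and treated with compound for 48 hours. The concentration for 50% growth inhibition is given as GI50. TGI denotes the concentration required for complete inhibition of growth.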 Active and inactive are the calls of the source.

How the values were obtained:
Test in all cases: growth of human tumour cells (NCI), 48 h
[1] = system: UACC-257 melanoma
[2] = system: HCT-116 colon
[3] = system: NCI-H226 lung
[4] = system: RXF 393 renal
[5] = system: KM12 colon
[6] = system: COLO 205 colon
[7] = system: MDA-MB-231 breast
[8] = system: SW-620 colon
[9] = system: SF-268 CNS
[10] = system: T-47D breast
[11] = system: SR leukemia
[12] = system: HOP-62 NSCLC
[13] = system: K-562 leukemia
[14] = system: SNB-75 CNS
[15] = system: SK-OV-3 ovarian
[16] = system: MDA-MB-435
[17] = system: LOX IMVI melanoma
[18] = system: BT-549 breast
[19] = system: NCI-H460 lung
[20] = system: M14 melanoma
[21] = system: ACHN renal
[22] = system: CAKI-1 renal
[23] = system: IGROV1 ovarian
[24] = system: MALME-3M melanoma
[25] = system: EKVX NSCLC
[26] = system: OVCAR-3 ovarian
[27] = system: HCT-15 colon
[28] = system: SK-MEL-28 melanoma
[29] = system: SN12C renal
[30] = system: OVCAR-5 ovarian
[31] = system: A549 NSCLC
[32] = system: SNB-19 CNS
[33] = system: NCI-H23 lung
[34] = system: U251 CNS
[35] = system: UACC-62 melanoma
[36] = system: SK-MEL-5 melanoma
[37] = system: SF-539 CNS
[38] = system: 786-0 renal
[39] = system: PC-3 prostate
[40] = system: MCF7 breast
[41] = system: HCC-2998 colon
[42] = system: OVCAR-4 ovarian
[43] = system: HL-60(TB) leukemia
[44] = system: MOLT-4 leukemia
[45] = system: CCRF-CEM leukemia
[46] = system: NCI/ADR-RES ovarian
[47] = system: DU-145 prostate
[48] = system: UO-31 renal
[49] = system: SF-295 CNS
[50] = system: OVCAR-8 ovarian
[51] = system: TK-10 renal
[52] = system: HT29 colon
[53] = system: SK-MEL-2 melanoma

Structure (SMILES): Cc1c2cc(O)c(=O)cc-2oc2cc(O)c(O)cc12
- GI50 [1]: > 100 µM
- TGI [1]: > 100 µM
- GI50 [2]: > 100 µM
- TGI [2]: > 100 µM
- GI50 [3]: > 100 µM
- TGI [3]: > 100 µM
- GI50 [4]: inactive
- TGI [4]: > 100 µM
- GI50 [5]: > 100 µM
- TGI [5]: > 100 µM
- GI50 [6]: > 100 µM
- TGI [6]: > 100 µM
- GI50 [7]: > 100 µM
- TGI [7]: > 100 µM
- GI50 [8]: > 100 µM
- TGI [8]: > 100 µM
- GI50 [9]: inactive
- TGI [9]: > 100 µM
- GI50 [10]: > 100 µM
- TGI [10]: > 100 µM
- GI50 [11]: inactive
- TGI [11]: > 100 µM
- GI50 [12]: inactive
- TGI [12]: > 100 µM
- GI50 [13]: > 100 µM
- TGI [13]: > 100 µM
- GI50 [14]: inactive
- TGI [14]: > 100 µM
- GI50 [15]: > 100 µM
- TGI [15]: > 100 µM
- GI50 [16]: inactive
- TGI [16]: > 100 µM
- GI50 [17]: > 100 µM
- TGI [17]: > 100 µM
- GI50 [18]: > 100 µM
- TGI [18]: > 100 µM
- GI50 [19]: > 100 µM
- TGI [19]: > 100 µM
- GI50 [20]: inactive
- TGI [20]: > 100 µM
- GI50 [21]: inactive
- TGI [21]: > 100 µM
- GI50 [22]: inactive
- TGI [22]: > 100 µM
- GI50 [23]: > 100 µM
- TGI [23]: > 100 µM
- GI50 [24]: > 100 µM
- TGI [24]: > 100 µM
- GI50 [25]: > 100 µM
- TGI [25]: > 100 µM
- GI50 [26]: inactive
- TGI [26]: > 100 µM
- GI50 [27]: > 100 µM
- TGI [27]: > 100 µM
- GI50 [28]: > 100 µM
- TGI [28]: > 100 µM
- GI50 [29]: > 100 µM
- TGI [29]: > 100 µM
- GI50 [30]: > 100 µM
- TGI [30]: > 100 µM
- GI50 [31]: > 100 µM
- TGI [31]: > 100 µM
- GI50 [32]: > 100 µM
- TGI [32]: > 100 µM
- GI50 [33]: > 100 µM
- TGI [33]: > 100 µM
- GI50 [34]: inactive
- TGI [34]: > 100 µM
- GI50 [35]: > 100 µM
- TGI [35]: > 100 µM
- GI50 [36]: > 100 µM
- TGI [36]: > 100 µM
- GI50 [37]: > 100 µM
- TGI [37]: > 100 µM
- GI50 [38]: > 100 µM
- TGI [38]: > 100 µM
- GI50 [39]: > 100 µM
- TGI [39]: > 100 µM
- GI50 [40]: > 100 µM
- TGI [40]: > 100 µM
- GI50 [41]: > 100 µM
- TGI [41]: > 100 µM
- GI50 [42]: > 100 µM
- TGI [42]: > 100 µM
- GI50 [43]: > 100 µM
- TGI [43]: > 100 µM
- GI50 [44]: > 100 µM
- TGI [44]: > 100 µM
- GI50 [45]: inactive
- TGI [45]: > 100 µM
- GI50 [46]: inactive
- TGI [46]: > 100 µM
- GI50 [47]: > 100 µM
- TGI [47]: > 100 µM
- GI50 [48]: inactive
- TGI [48]: 75.3 µM
- GI50 [49]: > 100 µM
- TGI [49]: > 100 µM
- GI50 [50]: > 100 µM
- TGI [50]: > 100 µM
- GI50 [51]: > 100 µM
- TGI [51]: > 100 µM
- GI50 [52]: > 100 µM
- TGI [52]: > 100 µM
- GI50 [53]: > 100 µM
- TGI [53]: > 100 µM
